Results as given in patent US20240270806A1 (Chugai, published 2024).

B1: Bivalent IL-12 fusion protein FP29 (other)
heavy: QVQLVQSGAEVKKPGSSVKVSCKASGGTFSDYYLHWSRQAPGQGLEWMGWIDPENGDTEYAPKFQGRVTITADESTSTAYMELSSLRSEDTAVYYCARNKELRYIDVWGQGTLVTVSSTSGSGRSATPRGASTKGPSVFPLAPCSKSTSGGTAALGCLVKDYFPEPVTVSWNSGALTSGVHTFPAVLQSSGLYSLSSVVTVPSSSLGTQTYICNVNHKPSNTKVDKRVGGGGSGGGGS[human IgG1 Fc with changes cut from this listing]GSGGSGGSGGSGGSGGSIWELKKDVYVVELDWNPDAPGEMVVLTCDTPEEDGITWTLDQSSEVLGSGKTLTIQVKEFGDAGQYTCHKGGEVLSHSLLLLHKKEDGIWSTDILKDQKEPKNKTFLRCEAKNYSGRFTCWWLTTISTDLTFSVKSSRGSSDPQGVTCGAATLSAERVRGDNKEYEYSVECQEDSACPAAEESLPIEVMVDAVHKLKYENYTSSFFIRDIIKPDPPKNLQLKPLKNSRQVEVSWEYPDTWSTPHSYFSLTFCVQVQGKHKEKKDRVFTDKTSATVICRKNASISVRAQDRYYSSSWSEWASVPCSGGGGSGGGGSGGGGSGGGGSNLPVATPDPGMFPCLHHSQNLLRAVSNMLQKARQTLEFYPCTSEEIDHEDITKDKTSTVEACLPLELTKNESCLNSRETSFITNGSCLASRKTSFMMALCLSSIYEDLKMYQVEFKTMNAKLLMDPKRQIFLDQNMLAVIDELMQALNFNSETVPQKSSLEEPDFYKTKIKLCILLHAFRIRAVTIDRVMSYLNAS
light: DIVMTQSPLSLPVTPGEPASISCRASQSISINLHWYQQKPGQAPRQLIAFASQSISGVPSRFSGSGSGTDFTLTISSLQPEDFATYYCQQSNSFPLTFGQGTKVEIKRTVAAPSVFIFPPSDEQLKSGTASVVCLLNNFYPREAKVQWKVDNALQSGNSQESVTEQDSKDSTYSLSSTLTLSKADYEKHKVYACEVTHQGLSSPVTKSFNRGEC
B2: Bivalent IL-12 fusion protein FP30 (other)
heavy: QVQLVQSGAEVKKPGSSVKVSCKASGGTFSDYYLHWSRQAPGQGLEWMGWIDPENGDTEYAPKFQGRVTITADESTSTAYMELSSLRSEDTAVYYCARNKELRYIDVWGQGTLVTVSSTSGSGRSATPRGASTKGPSVFPLAPCSKSTSGGTAALGCLVKDYFPEPVTVSWNSGALTSGVHTFPAVLQSSGLYSLSSVVTVPSSSLGTQTYICNVNHKPSNTKVDKRVGGGGSGGGGS[human IgG1 Fc with changes cut from this listing]GSGGSGGSGGSGGSGGSIWELKKDVYVVELDWEPDAPGEMVVLTCDTPEEDGITWTLDQSSEVLGSGKTLTIQVKEFGDAGQYTCHKGGEVLSHSLLLLHKKEDGIWSTDILKDQKEPKNKTFLRCEAKNYSGRFTCWWLTTISTDLTFSVKSSRGSSDPQGVTCGAATLSAERVRGDNKEYEYSVECQEDSACPAAEESLPIEVMVDAVHKLKYENYTSSFFIRDIIKPDPPKNLQLKPLKNSRQVEVSWEYPDTWSTPHSYFSLTFCVQVQGKHKEKKDRVFTDKTSATVICRKNASISVRAQDRYYSSSWSEWASVPCSGGGGSGGGGSGGGGSGGGGSNLPVATPDPGMFPCLHHSQNLLRAVSNMLQKARQTLEFYPCTSEEIDHEDITKDKTSTVEACLPLELTKNESCLNSRETSFITNGSCLASRKTSFMMALCLSSIYEDLKMYQVEFKTMNAKLLMDPKRQIFLDQNMLAVIDELMQALNFNSETVPQKSSLEEPDFYKTKIKLCILLHAFRIRAVTIDRVMSYLNAS
light: B1 light
B3: Bivalent IL-12 fusion protein FP32 (other)
heavy: QVQLVQSGAEVKKPGSSVKVSCKASGGTFSDYYLHWSRQAPGQGLEWMGWIDPENGDTEYAPKFQGRVTITADESTSTAYMELSSLRSEDTAVYYCARNKELRYIDVWGQGTLVTVSSTSGSGRSATPRGASTKGPSVFPLAPCSKSTSGGTAALGCLVKDYFPEPVTVSWNSGALTSGVHTFPAVLQSSGLYSLSSVVTVPSSSLGTQTYICNVNHKPSNTKVDKRVGGGGSGGGGS[human IgG1 Fc with changes cut from this listing]GSGGSGGSGGSGGSGGSIWELKKDVYVVELDWGPDAPGEMVVLTCDTPEEDGITWTLDQSSEVLGSGKTLTIQVKEFGDAGQYTCHKGGEVLSHSLLLLHKKEDGIWSTDILKDQKEPKNKTFLRCEAKNYSGRFTCWWLTTISTDLTFSVKSSRGSSDPQGVTCGAATLSAERVRGDNKEYEYSVECQEDSACPAAEESLPIEVMVDAVHKLKYENYTSSFFIRDIIKPDPPKNLQLKPLKNSRQVEVSWEYPDTWSTPHSYFSLTFCVQVQGKHKEKKDRVFTDKTSATVICRKNASISVRAQDRYYSSSWSEWASVPCSGGGGSGGGGSGGGGSGGGGSNLPVATPDPGMFPCLHHSQNLLRAVSNMLQKARQTLEFYPCTSEEIDHEDITKDKTSTVEACLPLELTKNESCLNSRETSFITNGSCLASRKTSFMMALCLSSIYEDLKMYQVEFKTMNAKLLMDPKRQIFLDQNMLAVIDELMQALNFNSETVPQKSSLEEPDFYKTKIKLCILLHAFRIRAVTIDRVMSYLNAS
light: B1 light
B4: Bivalent IL-12 fusion protein FP33 (other)
heavy: QVQLVQSGAEVKKPGSSVKVSCKASGGTFSDYYLHWSRQAPGQGLEWMGWIDPENGDTEYAPKFQGRVTITADESTSTAYMELSSLRSEDTAVYYCARNKELRYIDVWGQGTLVTVSSTSGSGRSATPRGASTKGPSVFPLAPCSKSTSGGTAALGCLVKDYFPEPVTVSWNSGALTSGVHTFPAVLQSSGLYSLSSVVTVPSSSLGTQTYICNVNHKPSNTKVDKRVGGGGSGGGGS[human IgG1 Fc with changes cut from this listing]GSGGSGGSGGSGGSGGSIWELKKDVYVVELDWKPDAPGEMVVLTCDTPEEDGITWTLDQSSEVLGSGKTLTIQVKEFGDAGQYTCHKGGEVLSHSLLLLHKKEDGIWSTDILKDQKEPKNKTFLRCEAKNYSGRFTCWWLTTISTDLTFSVKSSRGSSDPQGVTCGAATLSAERVRGDNKEYEYSVECQEDSACPAAEESLPIEVMVDAVHKLKYENYTSSFFIRDIIKPDPPKNLQLKPLKNSRQVEVSWEYPDTWSTPHSYFSLTFCVQVQGKHKEKKDRVFTDKTSATVICRKNASISVRAQDRYYSSSWSEWASVPCSGGGGSGGGGSGGGGSGGGGSNLPVATPDPGMFPCLHHSQNLLRAVSNMLQKARQTLEFYPCTSEEIDHEDITKDKTSTVEACLPLELTKNESCLNSRETSFITNGSCLASRKTSFMMALCLSSIYEDLKMYQVEFKTMNAKLLMDPKRQIFLDQNMLAVIDELMQALNFNSETVPQKSSLEEPDFYKTKIKLCILLHAFRIRAVTIDRVMSYLNAS
light: B1 light
B5: Bivalent IL-12 fusion protein FP34 (other)
heavy: QVQLVQSGAEVKKPGSSVKVSCKASGGTFSDYYLHWSRQAPGQGLEWMGWIDPENGDTEYAPKFQGRVTITADESTSTAYMELSSLRSEDTAVYYCARNKELRYIDVWGQGTLVTVSSTSGSGRSATPRGASTKGPSVFPLAPCSKSTSGGTAALGCLVKDYFPEPVTVSWNSGALTSGVHTFPAVLQSSGLYSLSSVVTVPSSSLGTQTYICNVNHKPSNTKVDKRVGGGGSGGGGS[human IgG1 Fc with changes cut from this listing]GSGGSGGSGGSGGSGGSIWELKKDVYVVELDWAPDAPGEMVVLTCDTPEEDGITWTLDQSSEVLGSGKTLTIQVKEFGDAGQYTCHKGGEVLSHSLLLLHKKEDGIWSTDILKDQKEPKNKTFLRCEAKNYSGRFTCWWLTTISTDLTFSVKSSRGSSDPQGVTCGAATLSAERVRGDNKEYEYSVECQEDSACPAAEESLPIEVMVDAVHKLKYENYTSSFFIRDIIKPDPPKNLQLKPLKNSRQVEVSWEYPDTWSTPHSYFSLTFCVQVQGKHKEKKDRVFTDKTSATVICRKNASISVRAQDRYYSSSWSEWASVPCSGGGGSGGGGSGGGGSGGGGSNLPVATPDPGMFPCLHHSQNLLRAVSNMLQKARQTLEFYPCTSEEIDHEDITKDKTSTVEACLPLELTKNESCLNSRETSFITNGSCLASRKTSFMMALCLSSIYEDLKMYQVEFKTMNAKLLMDPKRQIFLDQNMLAVIDELMQALNFNSETVPQKSSLEEPDFYKTKIKLCILLHAFRIRAVTIDRVMSYLNAS
light: B1 light
B6: Bivalent IL-12 fusion protein FP35 (other)
heavy: QVQLVQSGAEVKKPGSSVKVSCKASGGTFSDYYLHWSRQAPGQGLEWMGWIDPENGDTEYAPKFQGRVTITADESTSTAYMELSSLRSEDTAVYYCARNKELRYIDVWGQGTLVTVSSTSGSGRSATPRGASTKGPSVFPLAPCSKSTSGGTAALGCLVKDYFPEPVTVSWNSGALTSGVHTFPAVLQSSGLYSLSSVVTVPSSSLGTQTYICNVNHKPSNTKVDKRVGGGGSGGGGS[human IgG1 Fc with changes cut from this listing]GSGGSGGSGGSGGSGGSIWELKKDVYVVELDWDPDAPGEMVVLTCDTPEEDGITWTLDQSSEVLGSGKTLTIQVKEFGDAGQYTCHKGGEVLSHSLLLLHKKEDGIWSTDILKDQKEPKNKTFLRCEAKNYSGRFTCWWLTTISTDLTFSVKSSRGSSDPQGVTCGAATLSAERVRGDNKEYEYSVECQEDSACPAAEESLPIEVMVDAVHKLKYENYTSSFFIRDIIKPDPPKNLQLKPLKNSRQVEVSWEYPDTWSTPHSYFSLTFCVQVQGKHKEKKDRVFTDKTSATVICRKNASISVRAQDRYYSSSWSEWASVPCSGGGGSGGGGSGGGGSGGGGSNLPVATPDPGMFPCLHHSQNLLRAVSNMLQKARQTLEFYPCTSEEIDHEDITKDKTSTVEACLPLELTKNESCLNSRETSFITNGSCLASRKTSFMMALCLSSIYEDLKMYQVEFKTMNAKLLMDPKRQIFLDQNMLAVIDELMQALNFNSETVPQKSSLEEPDFYKTKIKLCILLHAFRIRAVTIDRVMSYLNAS
light: B1 light
B7: Bivalent IL-12 fusion protein FP36 (other)
heavy: QVQLVQSGAEVKKPGSSVKVSCKASGGTFSDYYLHWSRQAPGQGLEWMGWIDPENGDTEYAPKFQGRVTITADESTSTAYMELSSLRSEDTAVYYCARNKELRYIDVWGQGTLVTVSSTSGSGRSATPRGASTKGPSVFPLAPCSKSTSGGTAALGCLVKDYFPEPVTVSWNSGALTSGVHTFPAVLQSSGLYSLSSVVTVPSSSLGTQTYICNVNHKPSNTKVDKRVGGGGSGGGGS[human IgG1 Fc with changes cut from this listing]GSGGSGGSGGSGGSGGSIWELKKDVYVVELDWHPDAPGEMVVLTCDTPEEDGITWTLDQSSEVLGSGKTLTIQVKEFGDAGQYTCHKGGEVLSHSLLLLHKKEDGIWSTDILKDQKEPKNKTFLRCEAKNYSGRFTCWWLTTISTDLTFSVKSSRGSSDPQGVTCGAATLSAERVRGDNKEYEYSVECQEDSACPAAEESLPIEVMVDAVHKLKYENYTSSFFIRDIIKPDPPKNLQLKPLKNSRQVEVSWEYPDTWSTPHSYFSLTFCVQVQGKHKEKKDRVFTDKTSATVICRKNASISVRAQDRYYSSSWSEWASVPCSGGGGSGGGGSGGGGSGGGGSNLPVATPDPGMFPCLHHSQNLLRAVSNMLQKARQTLEFYPCTSEEIDHEDITKDKTSTVEACLPLELTKNESCLNSRETSFITNGSCLASRKTSFMMALCLSSIYEDLKMYQVEFKTMNAKLLMDPKRQIFLDQNMLAVIDELMQALNFNSETVPQKSSLEEPDFYKTKIKLCILLHAFRIRAVTIDRVMSYLNAS
light: B1 light
B8: Bivalent IL-12 fusion protein FP37 (other)
heavy: QVQLVQSGAEVKKPGSSVKVSCKASGGTFSDYYLHWSRQAPGQGLEWMGWIDPENGDTEYAPKFQGRVTITADESTSTAYMELSSLRSEDTAVYYCARNKELRYIDVWGQGTLVTVSSTSGSGRSATPRGASTKGPSVFPLAPCSKSTSGGTAALGCLVKDYFPEPVTVSWNSGALTSGVHTFPAVLQSSGLYSLSSVVTVPSSSLGTQTYICNVNHKPSNTKVDKRVGGGGSGGGGS[human IgG1 Fc with changes cut from this listing]GSGGSGGSGGSGGSGGSIWELKKDVYVVELDWIPDAPGEMVVLTCDTPEEDGITWTLDQSSEVLGSGKTLTIQVKEFGDAGQYTCHKGGEVLSHSLLLLHKKEDGIWSTDILKDQKEPKNKTFLRCEAKNYSGRFTCWWLTTISTDLTFSVKSSRGSSDPQGVTCGAATLSAERVRGDNKEYEYSVECQEDSACPAAEESLPIEVMVDAVHKLKYENYTSSFFIRDIIKPDPPKNLQLKPLKNSRQVEVSWEYPDTWSTPHSYFSLTFCVQVQGKHKEKKDRVFTDKTSATVICRKNASISVRAQDRYYSSSWSEWASVPCSGGGGSGGGGSGGGGSGGGGSNLPVATPDPGMFPCLHHSQNLLRAVSNMLQKARQTLEFYPCTSEEIDHEDITKDKTSTVEACLPLELTKNESCLNSRETSFITNGSCLASRKTSFMMALCLSSIYEDLKMYQVEFKTMNAKLLMDPKRQIFLDQNMLAVIDELMQALNFNSETVPQKSSLEEPDFYKTKIKLCILLHAFRIRAVTIDRVMSYLNAS
light: B1 light

Biological target: Human IL-12 receptor (human IL-12Rb1 and IL-12Rb2) (human, UniProt P42701 24-662; Q99665 24-862)
Assay: cell-based or functional assay

B1 and B2 are the same in “Fold change (window), IL-12 luciferase assay” value (“Fold change (window)” below): 172 fold for the first, 172 fold for the second.

Going from B3 to B4, the “Fold change (window)” value falls from 238 fold to 80 fold.

Going from B5 to B6, the “Fold change (window)” value rises from 47.5 fold to 89.7 fold.

Going from B7 to B8, the “Fold change (window)” value rises from 44.7 fold to 52.4 fold.
